In PMC9911596 (Nature Communications, 2023) one finds binding data, which are given here for eight molecules.

By UniProt entry, the sequences of proteins in these tests, tags left out. Where a name states a change or a piece, a line headed by the entry shows the natural chain unless it says otherwise.
UniProt P47075: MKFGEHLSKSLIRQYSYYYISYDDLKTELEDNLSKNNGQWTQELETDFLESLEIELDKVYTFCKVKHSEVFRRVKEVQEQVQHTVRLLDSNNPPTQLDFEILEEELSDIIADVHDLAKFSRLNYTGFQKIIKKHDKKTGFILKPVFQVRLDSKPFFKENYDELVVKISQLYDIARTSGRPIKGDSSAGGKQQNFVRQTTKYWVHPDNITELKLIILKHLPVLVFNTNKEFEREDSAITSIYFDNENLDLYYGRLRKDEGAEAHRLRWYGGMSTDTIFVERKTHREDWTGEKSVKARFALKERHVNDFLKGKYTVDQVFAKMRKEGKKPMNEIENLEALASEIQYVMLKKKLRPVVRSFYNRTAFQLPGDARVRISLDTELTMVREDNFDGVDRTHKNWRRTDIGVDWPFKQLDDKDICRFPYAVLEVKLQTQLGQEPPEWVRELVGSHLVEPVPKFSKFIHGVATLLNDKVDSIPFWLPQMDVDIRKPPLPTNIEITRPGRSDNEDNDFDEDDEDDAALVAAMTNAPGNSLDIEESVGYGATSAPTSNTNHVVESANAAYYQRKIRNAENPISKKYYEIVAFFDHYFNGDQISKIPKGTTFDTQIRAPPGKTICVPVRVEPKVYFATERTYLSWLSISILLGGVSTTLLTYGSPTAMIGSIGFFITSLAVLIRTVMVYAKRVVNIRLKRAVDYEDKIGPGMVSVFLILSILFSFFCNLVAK

The target in experiment [1] is T1, TTM_(183–553)^Vtc3,mutant (Baker's yeast) (UniProt Q02725).
T1 sequence: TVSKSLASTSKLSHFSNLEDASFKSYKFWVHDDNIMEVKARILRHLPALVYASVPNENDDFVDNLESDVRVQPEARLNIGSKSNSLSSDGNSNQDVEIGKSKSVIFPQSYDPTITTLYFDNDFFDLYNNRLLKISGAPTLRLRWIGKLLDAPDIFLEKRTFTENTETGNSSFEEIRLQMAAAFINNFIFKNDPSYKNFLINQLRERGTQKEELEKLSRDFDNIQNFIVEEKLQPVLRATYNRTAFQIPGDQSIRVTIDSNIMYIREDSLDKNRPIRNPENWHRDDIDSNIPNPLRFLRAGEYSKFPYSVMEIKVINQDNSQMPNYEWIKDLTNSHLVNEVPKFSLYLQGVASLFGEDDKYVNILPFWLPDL
Nature of the experiment: SEC; isolated TTM domains mixed in the presence of InsP6; 25 mM Tris-HCl pH 8.0, 150 mM NaCl; both purified. A general note: In gel filtration, larger molecules generally elute earlier.

The target in a further experiment is T2, Vtc3 (Baker's yeast, UniProt Q02725 1-835).
T2 construct: Vtc3, yeast, UniProt Q02725; codon-optimized DNA in the pMlink vector; source: Expi293F cells, transiently cotransfected with the Vtc1 and Vtc4 plasmids; purified as part of the VTC complex (anti-Flag resin, Strep-Tactin resin; SEC for the cryo-EM sample); not shown: 3×Flag, N-terminal, kept
T2 sequence: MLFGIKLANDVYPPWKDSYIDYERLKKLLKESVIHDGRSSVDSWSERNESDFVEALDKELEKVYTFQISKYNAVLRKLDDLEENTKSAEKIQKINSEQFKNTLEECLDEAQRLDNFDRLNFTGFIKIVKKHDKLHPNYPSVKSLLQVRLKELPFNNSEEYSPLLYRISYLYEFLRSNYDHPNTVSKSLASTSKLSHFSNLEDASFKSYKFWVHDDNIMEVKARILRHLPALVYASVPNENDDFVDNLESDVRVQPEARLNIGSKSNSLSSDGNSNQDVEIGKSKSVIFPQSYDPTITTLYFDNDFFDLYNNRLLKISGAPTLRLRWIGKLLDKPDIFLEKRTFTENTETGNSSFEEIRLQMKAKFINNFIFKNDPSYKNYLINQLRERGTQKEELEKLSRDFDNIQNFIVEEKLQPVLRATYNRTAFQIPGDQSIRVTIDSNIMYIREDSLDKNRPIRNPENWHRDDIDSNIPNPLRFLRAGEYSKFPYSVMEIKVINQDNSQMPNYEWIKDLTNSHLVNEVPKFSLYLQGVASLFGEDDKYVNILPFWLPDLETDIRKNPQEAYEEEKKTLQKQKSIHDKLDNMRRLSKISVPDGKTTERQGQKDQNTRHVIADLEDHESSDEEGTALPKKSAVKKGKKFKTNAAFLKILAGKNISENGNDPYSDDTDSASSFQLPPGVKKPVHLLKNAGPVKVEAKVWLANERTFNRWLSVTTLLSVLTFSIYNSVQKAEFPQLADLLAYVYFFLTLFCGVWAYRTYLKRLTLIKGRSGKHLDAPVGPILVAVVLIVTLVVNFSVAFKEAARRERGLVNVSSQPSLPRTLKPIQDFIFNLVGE
Nature of the experiment: tandem affinity co-purification (anti-Flag resin, then Strep-Tactin resin) with SDS-PAGE; three subunits co-expressed in Expi293F; complex purified by 3×Flag on Vtc3 and 2×Strep on Vtc4; no InsP6 added, 0.02% DDM.

The target in experiment [2] is T3, TTM_(183–553)^Vtc3 (Baker's yeast) (UniProt Q02725).
T3 sequence: T1 sequence with A151K, A180K, A182K, F198Y
Nature of the experiment: SEC; isolated TTM domains mixed in the presence of InsP6; 25 mM Tris-HCl pH 8.0, 150 mM NaCl; both purified.

The next experiment has as its target Vtc4 (Baker's yeast) (UniProt P47075). Nature of the experiment: tandem affinity co-purification (anti-Flag resin, then Strep-Tactin resin) with SDS-PAGE; three subunits co-expressed in Expi293F; complex purified by 3×Flag on Vtc3 and 2×Strep on Vtc4; no InsP6 added, 0.02% DDM.

Substitutions are numbered along the chain they refer to. Numbers in names are those of the source. These are yes or no findings as the source states them, for the method shown. Some results given as binding are weak or reduced against the parent protein; the word gives no strength.

As for “TTM_(189–480)^Vtc4 (from UniProt P47075 189-480) (domain or fragment)”, the binding result in experiment [1] is listed as “no binding”. For “Vtc4_(K300A/R302A/K320A) (from UniProt P47075 2-721)”, the binding result with Vtc3 was “binds”. The same measure, in the same setting: for “Vtc4_(K129A/K132A/K136A) (from UniProt P47075 2-721)” the value was “binds”; for “Vtc4_(K622A/R629A) (from UniProt P47075 2-721)”, “binds”. For “TTM_(189–480)^Vtc4,mutant (from UniProt P47075 189-480) (domain or fragment)”, the binding result in experiment [2] is “no binding”. As for “Vtc4_(Y22F/K26A/K133A) (from UniProt P47075 2-721)”, the binding result with Vtc3 is “binds”.

B1: Vtc1_(Δ1–21) (domain or fragment, UniProt P40046 22-129)
chain: EPKVFFANERTFLSWLNFTVMLGGLGVGLLNFGDKIGRVSAGLFTFVAMGTMIYALVTYHWRAAAIRRRGSGPYDDRLGPTLLCFFLLVAVIINFILRLKYNDANTKL
Turning to B1, the binding entry with Vtc4 (Baker's yeast) and in the experiment with Vtc3 was “binds” in each case.

B2: Vtc1_(K24A/R31A) (protein, UniProt P40046 2-129)
chain: SSAPLLQRTPGKKIALPTRVEPAVFFANEATFLSWLNFTVMLGGLGVGLLNFGDKIGRVSAGLFTFVAMGTMIYALVTYHWRAAAIRRRGSGPYDDRLGPTLLCFFLLVAVIINFILRLKYNDANTKL
Turning to B2, the binding entry with Vtc4 (Baker's yeast) and with Vtc3 was “binds” in each case.
